Source: a collection of fitness landscapes (doi:10.1016/j.celrep.2020.107928)
The full ranking holds about 81,000 sequences; the median of “one-hybrid fitness for binding NBS DNA” is about -0.1, and the highest 2% start at about 0.36. The list shows a part of the results.

B1: Caulobacter ParB omega fusion; a variant is named by its letters at X, in order, B8GW30 (parent)
chain: MESVVVGEPGMSEGRRGLGRGLSALLGEVDAAPAQAPGEQLGGSREAPIEILQRNPDQPRRTFREEDLEDLSNSIREKGVLQPILVRPSPDTAGEYQIVAGERAWRAAQRAGLKTVPIMVRELDDLAVLEIGIIENVQRADLNVLEEALSYKVLMEKFERTQENIAQTIGKSXSHVANXMRLLXLPDEVQSYLVSGELTAXHARAIAAAADPVALAKQIIEGGLSVRETEALARKAPNLSAGKSKGGRPPRVKDTDTQALESDLSSVLGLDVSIDHRGSTGTLTITYATLEQLDDLCNRLTRGI

Variants of: B1
Assay: one-hybrid fitness for binding NBS DNA (the Noc-binding site; scaled: cognate 1, non-cognate 0); higher = stronger binding
Settings: with NBS DNA site
Procedure, shortened: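 Pre- and post-selection plasmids were Illumina-sequenced, three replicate libraries were pooled, and any variant with under 10 reads was removed. The libraries were Caulobacter ParB with four specificity codons randomised, selected in E. coli USO through a HIS3 reporter whose site is 19 bp from the promoter. Cells grew 48 hours at 37°C on M9 without histidine, with 0.1 mM IPTG and 5 mM 3-AT. Fitness is the log change in variant-to-wild-type read ratio, rescaled against cognate and non-cognate.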

| Variant | one-hybrid fitness for binding NBS DNA |
| --- | --- |
| ARKS | ≤ 0.2 |
| HIAN | ≤ 0.2 |
| SYHC | ≤ 0.2 |
| ATRD | ≤ 0.2 |
| LTPW | ≤ 0.2 |
| CFSV | ≤ 0.2 |
| NETE | ≤ 0.2 |
| TQRT | ≤ 0.2 |
| KCKY | ≤ 0.2 |
| HFSR | ≤ 0.2 |
| RWYF | ≤ 0.2 |
| HDAF | ≤ 0.2 |
| LRKS | 0.275 |
| ADTA | ≤ 0.2 |
| HRSD | ≤ 0.2 |
| MRFK | ≤ 0.2 |
| QCEG | ≤ 0.2 |
| DSWR | ≤ 0.2 |
| DYSP | ≤ 0.2 |
| HSQI | ≤ 0.2 |
| WHAG | ≤ 0.2 |
| LGQT | ≤ 0.2 |
| SNSL | ≤ 0.2 |
| LTMM | ≤ 0.2 |

| Variant | one-hybrid fitness for binding NBS DNA |
| --- | --- |
| PFII | ≤ 0.2 |
| DVNV | ≤ 0.2 |
| VSLE | ≤ 0.2 |
| CKHP | ≤ 0.2 |
| LSRF | ≤ 0.2 |
| GKAF | ≤ 0.2 |
| RAKN | ≤ 0.2 |
| CITG | ≤ 0.2 |
| KFTM | ≤ 0.2 |
| PRKF | ≤ 0.2 |
| VSNL | ≤ 0.2 |
| KRDT | 0.421 |
| QCTL | ≤ 0.2 |
| KVHR | ≤ 0.2 |
| LNIR | ≤ 0.2 |
| QLWT | 0.308 |
| NAVF | ≤ 0.2 |
| SQLN | ≤ 0.2 |
| DMRG | ≤ 0.2 |
| LTWS | ≤ 0.2 |
| MHYH | ≤ 0.2 |
| STPS | ≤ 0.2 |
| PRKY | ≤ 0.2 |
| QIAM | ≤ 0.2 |

| Variant | one-hybrid fitness for binding NBS DNA |
| --- | --- |
| LSMV | ≤ 0.2 |
| FPYI | ≤ 0.2 |
| QWGR | 0.249 |
| VINS | ≤ 0.2 |
| VADS | ≤ 0.2 |
| EAEP | ≤ 0.2 |
| LRDM | ≤ 0.2 |
| TSEN | ≤ 0.2 |
| DVMA | ≤ 0.2 |
| HEPG | ≤ 0.2 |
| VCVG | ≤ 0.2 |
| NLIA | ≤ 0.2 |
| SNSS | ≤ 0.2 |
| HSIL | ≤ 0.2 |
| ESLF | ≤ 0.2 |
| QSQI | ≤ 0.2 |
| VVLR | ≤ 0.2 |
| RWLM | ≤ 0.2 |
| TSRE | ≤ 0.2 |
| VQPS | ≤ 0.2 |
| HEHN | ≤ 0.2 |
| VRRH | 0.22 |
| KPVQ | 0.284 |
| LVVH | ≤ 0.2 |

| Variant | one-hybrid fitness for binding NBS DNA |
| --- | --- |
| PHIG | ≤ 0.2 |
| DPLT | ≤ 0.2 |
| VAAN | ≤ 0.2 |
| RTPE | ≤ 0.2 |
| SGIC | ≤ 0.2 |
| SATF | ≤ 0.2 |
| TTPN | ≤ 0.2 |
| PWGG | ≤ 0.2 |
| CNYC | ≤ 0.2 |
| VPHC | ≤ 0.2 |
| AEAG | ≤ 0.2 |
| QKDH | 0.521 |
| PIAG | ≤ 0.2 |
| TQCR | ≤ 0.2 |
| SYFS | ≤ 0.2 |
| DGSY | ≤ 0.2 |
| LGRA | ≤ 0.2 |
| LVHA | ≤ 0.2 |
| HPTF | ≤ 0.2 |
| SWPW | ≤ 0.2 |
| DGRS | ≤ 0.2 |
| HGKR | ≤ 0.2 |
| CNFD | ≤ 0.2 |
| PQQA | ≤ 0.2 |

| Variant | one-hybrid fitness for binding NBS DNA |
| --- | --- |
| DQRT | ≤ 0.2 |
| MSQR | ≤ 0.2 |
| MHSG | ≤ 0.2 |
| LNNM | ≤ 0.2 |
| IYQS | ≤ 0.2 |
| SCSA | ≤ 0.2 |
| FAHR | ≤ 0.2 |
| KEGS | ≤ 0.2 |
| QQFS | 0.284 |
| KIYN | ≤ 0.2 |
| GNQH | ≤ 0.2 |
| TVKC | ≤ 0.2 |
| EGHG | ≤ 0.2 |
| FTCG | ≤ 0.2 |
| QLPE | ≤ 0.2 |
| QGFF | ≤ 0.2 |
| TLPQ | ≤ 0.2 |
| TMLY | ≤ 0.2 |
| ATWR | ≤ 0.2 |
| PCKC | ≤ 0.2 |
| PHAV | ≤ 0.2 |
| HIRY | ≤ 0.2 |
| TRHS | ≤ 0.2 |
| RACS | 0.34 |

| Variant | one-hybrid fitness for binding NBS DNA |
| --- | --- |
| LHNR | ≤ 0.2 |
| CKFF | ≤ 0.2 |
| GAMN | ≤ 0.2 |
| GVPD | ≤ 0.2 |
| RIHH | ≤ 0.2 |
| RHKL | ≤ 0.2 |
| NYES | ≤ 0.2 |
| GSET | ≤ 0.2 |
| YRSL | ≤ 0.2 |
| TSFK | ≤ 0.2 |
| HATG | ≤ 0.2 |
| FMSK | ≤ 0.2 |
| CRGA | ≤ 0.2 |
| IRPN | ≤ 0.2 |
| PDLT | ≤ 0.2 |
| ELVL | ≤ 0.2 |
| GKPI | ≤ 0.2 |
| PWHI | ≤ 0.2 |
| FLFR | ≤ 0.2 |
| TVML | ≤ 0.2 |
| LLES | ≤ 0.2 |
| RFVY | ≤ 0.2 |
| AMAC | ≤ 0.2 |
| MSMC | ≤ 0.2 |

| Variant | one-hybrid fitness for binding NBS DNA |
| --- | --- |
| KQCC | ≤ 0.2 |
| VYWM | ≤ 0.2 |
| ADGC | ≤ 0.2 |
| YVGT | ≤ 0.2 |
| KHGV | ≤ 0.2 |
| EAPG | ≤ 0.2 |
| HVAA | ≤ 0.2 |
| RKVH | 0.211 |
| PLQY | ≤ 0.2 |
| QKLF | ≤ 0.2 |
| RRMY | 0.338 |
| MQIC | ≤ 0.2 |
| EPYD | ≤ 0.2 |
| LLLI | ≤ 0.2 |
| HTKT | ≤ 0.2 |
| QTQK | 0.216 |
| PPDS | ≤ 0.2 |
| CRAC | ≤ 0.2 |
| KSSW | ≤ 0.2 |
| AIVW | ≤ 0.2 |
| SFPK | ≤ 0.2 |
| DAGD | ≤ 0.2 |
| PAWQ | ≤ 0.2 |
| EGRA | ≤ 0.2 |

| Variant | one-hybrid fitness for binding NBS DNA |
| --- | --- |
| RWEG | ≤ 0.2 |
| REQV | ≤ 0.2 |
| SMHS | ≤ 0.2 |
| KYIF | ≤ 0.2 |
| IQNW | ≤ 0.2 |
| LKVF | ≤ 0.2 |
| HAIR | ≤ 0.2 |
| CCNT | ≤ 0.2 |
| RMRD | ≤ 0.2 |
| QAWT | 0.297 |
| DSRM | ≤ 0.2 |
| SDHH | ≤ 0.2 |
| GGVT | ≤ 0.2 |
| FIIR | ≤ 0.2 |
| VPAW | ≤ 0.2 |
| SNQT | ≤ 0.2 |
| NDPG | ≤ 0.2 |
| HICA | ≤ 0.2 |
| LPDM | ≤ 0.2 |
| TVHT | ≤ 0.2 |
| YYSE | ≤ 0.2 |
| CHTP | ≤ 0.2 |
| WPMC | ≤ 0.2 |
| SGDY | ≤ 0.2 |

| Variant | one-hybrid fitness for binding NBS DNA |
| --- | --- |
| WDAT | ≤ 0.2 |
| LTHT | ≤ 0.2 |
| LCAL | ≤ 0.2 |
| PNNK | ≤ 0.2 |
| EQKT | ≤ 0.2 |
| VVYY | ≤ 0.2 |
| ADLI | ≤ 0.2 |
| SIPC | ≤ 0.2 |
| QMNM | ≤ 0.2 |
| PAFY | ≤ 0.2 |
| AHGC | ≤ 0.2 |
| NNQS | ≤ 0.2 |
| GYRR | ≤ 0.2 |
| LNRT | ≤ 0.2 |
| WPCR | ≤ 0.2 |
| NLQT | ≤ 0.2 |
| RRAE | ≤ 0.2 |
| RLRG | ≤ 0.2 |
| QDNR | 0.203 |
| ITYL | ≤ 0.2 |
| SPRP | ≤ 0.2 |
| LEAA | ≤ 0.2 |
| YDSC | ≤ 0.2 |
| RFRV | ≤ 0.2 |

| Variant | one-hybrid fitness for binding NBS DNA |
| --- | --- |
| FACW | ≤ 0.2 |
| MTGR | ≤ 0.2 |
| CLNT | ≤ 0.2 |
| RPIL | ≤ 0.2 |
| NGPL | ≤ 0.2 |
| RDRY | ≤ 0.2 |
| AKPM | ≤ 0.2 |
| IATK | ≤ 0.2 |
| QIRW | ≤ 0.2 |
| RCRL | ≤ 0.2 |
| RSCV | ≤ 0.2 |
| EMMS | ≤ 0.2 |
| HKMC | ≤ 0.2 |
| WRKY | ≤ 0.2 |
| DSKG | ≤ 0.2 |
| MVAR | ≤ 0.2 |
| EYQT | ≤ 0.2 |
| VMSG | ≤ 0.2 |
| EGMA | ≤ 0.2 |
| FIIS | ≤ 0.2 |
| QATY | ≤ 0.2 |
| ESPP | ≤ 0.2 |
| WWKT | ≤ 0.2 |
| RNKE | ≤ 0.2 |

| Variant | one-hybrid fitness for binding NBS DNA |
| --- | --- |
| RQKF | ≤ 0.2 |
| RYFR | 0.241 |
| RQQP | ≤ 0.2 |
| RTRS | 0.651 |
| IRVM | ≤ 0.2 |
| RWRM | ≤ 0.2 |
| PKTD | ≤ 0.2 |
| EVNR | ≤ 0.2 |
| QQIA | ≤ 0.2 |
| QLEN | ≤ 0.2 |
| RWTT | ≤ 0.2 |
| VPRD | ≤ 0.2 |
| CSRG | ≤ 0.2 |
| NCAL | ≤ 0.2 |
| FIPT | ≤ 0.2 |
| WSPV | ≤ 0.2 |
| PQYC | ≤ 0.2 |
| QRWD | ≤ 0.2 |
| MNAR | ≤ 0.2 |
| NHKA | ≤ 0.2 |
| QDTL | ≤ 0.2 |
| DMGG | ≤ 0.2 |
| CCPH | ≤ 0.2 |
| YNKG | ≤ 0.2 |

| Variant | one-hybrid fitness for binding NBS DNA |
| --- | --- |
| RIMT | 0.283 |
| IVVG | ≤ 0.2 |
| AQRP | ≤ 0.2 |
| CGDK | ≤ 0.2 |
| VWAS | ≤ 0.2 |
| WKDY | ≤ 0.2 |
| ESFE | ≤ 0.2 |
| CLLM | ≤ 0.2 |
| LLQQ | ≤ 0.2 |
| FPCT | ≤ 0.2 |
| WNDG | ≤ 0.2 |
| VYCN | ≤ 0.2 |
| RMPA | ≤ 0.2 |
| NWMT | ≤ 0.2 |
| DFSL | ≤ 0.2 |
| RVTN | ≤ 0.2 |
| PALI | ≤ 0.2 |
| YQMS | ≤ 0.2 |
| VIPM | ≤ 0.2 |
| KPKY | ≤ 0.2 |
| NEMR | ≤ 0.2 |
| RVQK | ≤ 0.2 |
| DQVS | ≤ 0.2 |
| SWRW | ≤ 0.2 |

| Variant | one-hybrid fitness for binding NBS DNA |
| --- | --- |
| LHSA | ≤ 0.2 |
| AYAE | ≤ 0.2 |
| RFMI | ≤ 0.2 |
| CRPG | ≤ 0.2 |
| NYLI | ≤ 0.2 |
| QHPA | ≤ 0.2 |
| SNIR | ≤ 0.2 |
| RWPD | ≤ 0.2 |
| QFIA | ≤ 0.2 |
| RKRE | ≤ 0.2 |
| IKLD | ≤ 0.2 |
| LAYY | ≤ 0.2 |
| PCAG | ≤ 0.2 |
| LYHY | ≤ 0.2 |
| NKRR | 0.235 |
| RAEW | ≤ 0.2 |
| SDSY | ≤ 0.2 |
| WREC | ≤ 0.2 |
